The chains are these.
B1: UGCACCG (DNA:RNA)
RNA: GGGAGACCGGAAUUCAGAUUGUCCUGCACCGUUAAAUCCCGUCGUAGCCACCA
DNA 1: CAATCTGAATTCCGGTCTCCC
DNA 2: TGGTGGCTACGACGGGATT
B2: GCCUUUG (DNA:RNA)
RNA: B1 RNA with U25G, G26C, A28U, C29U, C30U
DNA 1: CAATCTGAATTCCGGTCTCCC
DNA 2: TGGTGGCTACGACGGGATT
B3: GAGCUGU (DNA:RNA)
RNA: GGGAGACCGGAAUUCAGAUUGUCCGAGCUGUUUAAAUCCCGUCGUAGCCACCA
DNA 1: CAATCTGAATTCCGGTCTCCC
DNA 2: TGGTGGCTACGACGGGATT
B4: CAAAUGA (DNA:RNA)
RNA: B3 RNA with G25C, G27A, C28A, U31A
DNA 1: CAATCTGAATTCCGGTCTCCC
DNA 2: TGGTGGCTACGACGGGATT
B5: CGUGUCG (DNA:RNA)
RNA: B1 RNA with U25C, C27U, A28G, C29U
DNA 1: CAATCTGAATTCCGGTCTCCC
DNA 2: TGGTGGCTACGACGGGATT
B6: AGGACUU (DNA:RNA)
RNA: B1 RNA with U25A, C27G, C30U, G31U
DNA 1: CAATCTGAATTCCGGTCTCCC
DNA 2: TGGTGGCTACGACGGGATT
B7: GUAUCAU (DNA:RNA)
RNA: B3 RNA with A26U, G27A, C28U, U29C, G30A
DNA 1: CAATCTGAATTCCGGTCTCCC
DNA 2: TGGTGGCTACGACGGGATT
B8: AUAUUCA (DNA:RNA)
RNA: B3 RNA with G25A, A26U, G27A, C28U, G30C, U31A
DNA 1: CAATCTGAATTCCGGTCTCCC
DNA 2: TGGTGGCTACGACGGGATT
B9: AGUACAA (DNA:RNA)
RNA: B1 RNA with U25A, C27U, C30A, G31A
DNA 1: CAATCTGAATTCCGGTCTCCC
DNA 2: TGGTGGCTACGACGGGATT
B10: CUCCAGG (DNA:RNA)
RNA: B3 RNA with G25C, A26U, G27C, U29A, U31G
DNA 1: CAATCTGAATTCCGGTCTCCC
DNA 2: TGGTGGCTACGACGGGATT
B11: GGGGGCA (DNA:RNA)
RNA: B3 RNA with A26G, C28G, U29G, G30C, U31A
DNA 1: CAATCTGAATTCCGGTCTCCC
DNA 2: TGGTGGCTACGACGGGATT
B12: CUGCGGA (DNA:RNA)
RNA: B3 RNA with G25C, A26U, U29G, U31A
DNA 1: CAATCTGAATTCCGGTCTCCC
DNA 2: TGGTGGCTACGACGGGATT
B13: AGCCAGG (DNA:RNA)
RNA: B1 RNA with U25A, A28C, C29A, C30G
DNA 1: CAATCTGAATTCCGGTCTCCC
DNA 2: TGGTGGCTACGACGGGATT
B14: GAAUUCC (DNA:RNA)
RNA: B3 RNA with G27A, C28U, G30C, U31C
DNA 1: CAATCTGAATTCCGGTCTCCC
DNA 2: TGGTGGCTACGACGGGATT
B15: AACACAG (DNA:RNA)
RNA: B1 RNA with U25A, G26A, C30A
DNA 1: CAATCTGAATTCCGGTCTCCC
DNA 2: TGGTGGCTACGACGGGATT
B16: CGAUCCA (DNA:RNA)
RNA: B1 RNA with U25C, C27A, A28U, G31A
DNA 1: CAATCTGAATTCCGGTCTCCC
DNA 2: TGGTGGCTACGACGGGATT
B17: AUGCAAC (DNA:RNA)
RNA: B3 RNA with G25A, A26U, U29A, G30A, U31C
DNA 1: CAATCTGAATTCCGGTCTCCC
DNA 2: TGGTGGCTACGACGGGATT
B18: CUAGGCA (DNA:RNA)
RNA: B1 RNA with U25C, G26U, C27A, A28G, C29G, G31A
DNA 1: CAATCTGAATTCCGGTCTCCC
DNA 2: TGGTGGCTACGACGGGATT
B19: UGCCAUU (DNA:RNA)
RNA: B1 RNA with A28C, C29A, C30U, G31U
DNA 1: CAATCTGAATTCCGGTCTCCC
DNA 2: TGGTGGCTACGACGGGATT
B20: GGGCUAU (DNA:RNA)
RNA: B3 RNA with A26G, G30A
DNA 1: CAATCTGAATTCCGGTCTCCC
DNA 2: TGGTGGCTACGACGGGATT

Residue numbers refer to the chain shown, from its start. Some of the results follow.

This test deals with T1, RBFOX1 RRM (Homo sapiens, UniProt Q9NWB1 109-208).
T1 sequence: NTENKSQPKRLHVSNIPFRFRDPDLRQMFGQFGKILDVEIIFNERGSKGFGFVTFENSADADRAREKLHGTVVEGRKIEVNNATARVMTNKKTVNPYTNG
The experiment in a line: EMSA; HiTS-Eq, 1 nM pool, 10 min; buffer printed only for the single-RNA assays: 10 mM Tris pH 7.5, 150 mM NaCl, 3.4 mM EDTA, 0.001% NP-40, 30 C. Particulars: tags: His6 N-terminal (pET28a); label: 5' 32P. Summed up:
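A pool of RNA with 7 randomized nucleotides, 5′-radiolabelled and with DNA-annealed flanks, was equilibrated at 1 nM for 10 min in 50 µL with purified RbFox RRM, wild type or mutant, across increasing protein concentrations. Free RNA was separated by 8% native PAGE, excised, reverse-transcribed, barcoded by PCR and sequenced. Relative association constants were obtained from read-count changes of each RNA species versus the control reaction and normalised to the cognate motif.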
(A gel shift assay detects complexes by their altered migration in electrophoresis.)
Regarding B1, the binding signal was 0.0145 KA relative to UGCAUGU.
Turning to B2, the binding signal was 0.0186 KA relative to UGCAUGU.
For B3 the value was 0.0144 KA relative to UGCAUGU.
For B4 the value was 0.00405 KA relative to UGCAUGU; for B5, 0.0131 KA relative to UGCAUGU.
Under B6 stands 0.0188 KA relative to UGCAUGU.
As to B7, the binding signal is 0.00999 KA relative to UGCAUGU.
For B8 the value was 0.0026 KA relative to UGCAUGU; for B9, 0.00158 KA relative to UGCAUGU; for B10, 0.00898 KA relative to UGCAUGU.
For B11 the value was 0.0303 KA relative to UGCAUGU; for B12, 0.0128 KA relative to UGCAUGU; for B13, 0.0168 KA relative to UGCAUGU.
Under B14 stands 0.00183 KA relative to UGCAUGU; under B15, 0.00255 KA relative to UGCAUGU.
Regarding B16, the binding signal is 0.00223 KA relative to UGCAUGU.
B17: the binding signal was 0.00789 KA relative to UGCAUGU.
For the molecule B18, the binding signal is 0.0123 KA relative to UGCAUGU.
For B19 the value was 0.0092 KA relative to UGCAUGU; for B20, 0.00586 KA relative to UGCAUGU.

These data come from PMC9911399, “Two distinct binding modes provide the RNA-binding protein RbFox with extraordinary sequence specificity”.
